PubChem BioAssay AID1159614 (National Center for Advancing Translational Sciences (NCATS), 2016)
The whole screen tested about 45,000 compounds, of which about 65 (0.1%) were called active. Calls come from the whole dose curve; as a rule, active = well fitted activation curve with a large enough effect; inconclusive = small, poorly fitted or top-dose-only effect; inactive = no such curve, though single readings can be large or run the other way. Some of the results follow.

Target: Galactocerebrosidase (Homo sapiens) (UniProt P54803)
Experiment: A Novel Cell-Based Assay to Identify Small Molecules for B -Galactocerebrosidase; note: 0% is about no effect; nearly all actives have a fitted effect of over 65% in size
Conditions: 145M-Twi-hGALC-G270D cells (Twitcher mouse brain line with human GALC G270D), HMU-beta-Gal fluorescence, 48 h; series mostly up to 57.5 µM; activation: at the top concentration
Procedure, shortened: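 Brain-derived Twitcher mouse 145M-Twi cells stably expressing human GALC-G270D or wild-type GALC, treated live, then residual GALC activity read by fluorescence of HMU-b-Gal substrate (0.1 mM final) in citrate-phosphate buffer pH 5.2 with sodium taurocholate. Signal increase indicates enhancement.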

UniProt P54803, sequence (P54803 whole entry, looked up): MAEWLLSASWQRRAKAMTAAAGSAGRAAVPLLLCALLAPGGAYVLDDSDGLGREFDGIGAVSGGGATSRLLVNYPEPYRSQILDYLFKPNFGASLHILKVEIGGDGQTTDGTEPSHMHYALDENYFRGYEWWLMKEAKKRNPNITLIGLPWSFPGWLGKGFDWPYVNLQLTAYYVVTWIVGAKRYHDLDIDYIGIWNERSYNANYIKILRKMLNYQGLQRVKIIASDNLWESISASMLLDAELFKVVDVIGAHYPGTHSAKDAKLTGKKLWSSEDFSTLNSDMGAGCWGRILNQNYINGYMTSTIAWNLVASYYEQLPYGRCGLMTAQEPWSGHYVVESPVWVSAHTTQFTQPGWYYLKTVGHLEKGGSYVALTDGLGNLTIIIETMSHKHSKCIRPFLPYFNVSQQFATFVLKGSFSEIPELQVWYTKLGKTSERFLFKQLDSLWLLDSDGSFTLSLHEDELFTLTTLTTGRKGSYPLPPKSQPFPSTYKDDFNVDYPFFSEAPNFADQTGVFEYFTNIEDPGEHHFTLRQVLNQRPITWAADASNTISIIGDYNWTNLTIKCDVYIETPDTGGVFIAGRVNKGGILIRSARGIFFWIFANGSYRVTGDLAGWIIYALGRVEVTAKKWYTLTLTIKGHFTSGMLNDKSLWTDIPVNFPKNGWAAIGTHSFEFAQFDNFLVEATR

activation, inactive:
COc1ccccc1C(=O)Nc1c(C(=O)N(C)Cc2ccccc2)sc2nc(C)c(Cl)c(C)c12 -10.1%
O=C(CSc1nnc(-c2ccc(O)cc2)o1)c1ccc(Br)cc1 -6.08%
Cc1ccc2c(c1)-c1nc(-c3ccc4c(c3)NC(=O)CO4)cc(-c3ccc(F)cc3)c1CO2 -10.4%
CCCCOc1ccc(CNC(=O)C2COc3ccc(OC)cc3C2)cc1 (stereo not given) -23.7%
Cn1c(=O)n(C/C=C/c2ccccc2)c(=O)c2c1nc1n2CCN1c1ccccc1 -12.5%
COc1ccc(S(=O)(=O)N(CC(=O)Nc2cccc(C(F)(F)F)c2)c2ccc(C)cc2)cc1 0.0299%
COc1ccc(CN(Cc2ccco2)c2cnc(S(C)(=O)=O)nc2C(=O)Nc2ccc(F)cc2)cc1 -8.63%
CC(C)NCC(O)COc1ccc(COCCOC(C)C)cc1 (stereo not given) -15.3%
COc1ccc(OC)c(-c2csc(-c3c(N)c(C(=O)c4ccccc4)n4ccccc34)n2)c1 -15.5%
O=C(Cn1ncn2nc(-c3cccs3)cc2c1=O)NCc1cccc(Br)c1 -0.319%
COC(=O)c1cccnc1-n1c(=O)c2cccnc2n(CC(=O)Nc2c(C)cc(C)cc2C)c1=O -14.6%
Cc1ccc(NC(=O)CN2C(=O)COc3ccc(S(=O)(=O)N4CCCCC4)cc32)cc1N(C)C -8.25%
COc1ccc(-n2c(=O)c3c(c4cc(OC)ccc4n3C)n(Cc3cc(C)ccc3C)c2=O)cc1 22.7%
CCOc1ccc(C(=O)c2cn(CC(=O)Nc3ccc4c(c3)OCO4)c3ccc(OCC)cc3c2=O)cc1 -7.86%
CCOc1ccc(S(=O)(=O)N(CC(=O)Nc2ccc3c(c2)OCO3)c2ccccc2)cc1 -10.1%
Cc1ccc(NC(=O)Cn2c(=O)n(-c3ccccc3)c(=O)c3ccc(C(=O)NCc4ccc5c(c4)OCO5)cc32)c(C)c1 -12.7%
CC(C)CN(CCNC(=O)CN1C(=O)CSc2ccc(S(=O)(=O)N3CCOCC3)cc21)CC(C)C -5.71%
Cc1cccc(CNC(=O)c2ccc(NC(=O)N3CC(C)Sc4ccccc43)cc2)c1 (stereo not given) -7.88%
Nc1c(C(=O)c2ccc(F)cc2)sc(Nc2ccccc2F)c1S(=O)(=O)c1ccc(Br)cc1 -26.6%
CCOC(=O)c1cccc(NC(=O)c2ccc3nc(Cc4ccccc4)oc3c2)c1 -12.8%
O=C(/C=C\c1ccc2c(c1)OCO2)NC1CC(=O)N(c2cccc(F)c2)C1 (stereo not given) -10.5%
O=C(Nc1c(-c2ccc(F)cc2)nc2ccccn12)c1ccccc1F -10.9%
COc1ccccc1CNC(=O)c1ccc2c(c1)CCN2S(=O)(=O)c1ccccc1 -27.6%
COc1cccc(/C=C/c2onc(C)c2S(=O)(=O)N2CCC(C(=O)N3CCC(C)CC3)CC2)c1 -13.8%
Cc1cc2ccccc2n1-c1ccc(C(=O)N2CCC(C(=O)NCc3ccccc3Cl)CC2)s1 -17.6%
COc1ccccc1N1CCN(C(=O)CSc2n[nH]c(-c3ccccc3)n2)CC1 3.6%
Cc1ccc(-n2c3c(c(=O)[nH]c2=O)C(NC(=O)c2ccccc2C)(C(F)(F)F)C(=O)N3)cc1 (stereo not given) -11.9%
Cc1ccccc1NCc1cccn1-c1nnc(N2CCC(C)CC2)s1 -20%
COc1ccc(-c2cn3c(n2)sc2cc(C(=O)Nc4cccc(OC)c4)ccc23)cc1 -12.4%
COC(=O)c1scc(-c2ccc(C)cc2)c1S(=O)(=O)Nc1ccc(N(C)C)cc1 13.7%
CCOC(=O)C1=C(CN2CCN(c3ccccc3F)CC2)NC(=O)NC1c1ccc(Cl)cc1 (stereo not given) 1.39%
CC(CNC(=O)Cc1ccc(NC(=O)N2CCSc3ncccc32)cc1)c1ccccc1 (stereo not given) -23.4%
Cn1c(=O)oc2cc(S(=O)(=O)Nc3ccccc3O)ccc21 -20.5%
Cc1ccc(CNC(=O)C2CCN(S(=O)(=O)c3cc(-c4noc(C)n4)ccc3C)CC2)cc1 -4.49%
CCOc1ccc(NC(=O)CC2C(=O)N(c3ccccc3)C(=O)N2Cc2ccc3c(c2)OCO3)cc1 (stereo not given) -15.3%
Cc1c(Cl)cccc1-n1nc(C)c2c(C(=O)NCc3ccccc3)cc(C3CC3)nc21 -14.6%
Cc1nc2c(-c3ccccc3)c(C)nn2c(C)c1CCC(=O)NCc1ccc(F)cc1 6.23%
CCOc1ccc(CCNC(=O)c2cc3c(s2)-c2ccccc2OC3)cc1OCC -10.1%
Cc1ccc(-c2cc(NC(=O)COc3ccc(Cl)cc3C)on2)cc1 -19.4%
COc1ccc(-c2cc(C(F)(F)F)nc(SCC(=O)N3CCC(C)CC3)n2)cc1 -8.14%
COc1ccc(CCNc2nccn(-c3ccc(C)c(C)c3)c2=O)cc1OC -9.03%
Cc1cc(C)cc(N2CC(c3nc(-c4cccc(Cl)c4)no3)CC2=O)c1 (stereo not given) -9.08%
Cc1ccc(CNCc2ccccc2)s1 2.97%
CCc1ccc(-n2c(=O)c3c4c(sc3n(Cc3ccc(C)cc3)c2=O)CCC4)cc1 13.7%
CC(=O)N1CCc2cc(S(=O)(=O)NC(Cc3ccccc3)C(=O)Nc3cccc(C)c3)ccc21 (stereo not given) 3.56%
Oc1c(C(c2ccc(F)cc2)N2CCOCC2)sc2nc(-c3ccco3)nn12 (stereo not given) -14%
O=C(Cn1ncc2c([nH]c3ccccc32)c1=O)Nc1cccc(C(F)(F)F)c1 4.05%
O=C1C(Nc2ccccc2)=CC(c2ccc(Br)cc2)N1c1ccccc1 (stereo not given) -17.4%
Cc1ccccc1CN1c2ccccc2S(=O)(=O)c2ccccc21 -4.39%
COc1ccccc1NC(=O)CN(C)S(=O)(=O)c1ccc2c(c1)c(=O)n(C)c(=O)n2C -11.1%
COc1ccc(C)cc1NC(=O)NCc1cccn1Cc1ccccc1 -12.5%
O=C(NCc1ccccc1)c1ccc2nc(CCc3ccccc3)oc2c1 -9.05%
Cc1ccc(CN2CCC(CNC(=O)Nc3cccc(Cl)c3C)C2)cc1 (stereo not given) -7.71%
Cc1ccc(CCNC(=O)NCc2noc3ccccc23)cc1 -19.7%
COc1ccc(N2CCN(C(CNC(=O)C(=O)NCCc3ccccc3)c3cccnc3)CC2)cc1 (stereo not given) 0.337%
COc1cc(OC)cc(-c2nc(-c3cccc(C)c3)no2)c1 -19.1%
CC1CCCN(S(=O)(=O)c2ccc3[nH]c(=O)cc(C(=O)NCCc4ccc(Cl)cc4)c3c2)C1 (stereo not given) -8.5%
COc1ccc(C)cc1NC(=O)CSc1nc2ccccc2nc1N1CCOCC1 -11.6%
O=C(COc1ccc(Cl)cc1)Nc1nnc2n1CCS2 -20.1%
CCOCCCN(C(=O)Nc1ccc(Cl)cc1)C1CCN(C(C)=O)CC1 -4.22%
